Source: the supplement of paper PMC4604168 (melanoma cell lines)
The list shows a part of the results. Single values are uncertain, as repeats are few or missing.

Tests used:
Experiment in all cases: cell count relative to DMSO control; melanoma cells; higher = more viable cells
Settings in all cases: library dose: low library concentration; 72 h
[1] = tested on: MeWo
[2] = tested on: RPMI7951
[3] = tested on: RVH-421
[4] = tested on: SkMel28
[5] = tested on: SkMel30
[6] = tested on: SkMel5
[7] = tested on: UACC257
[8] = tested on: UACC62
[9] = tested on: WM115
[10] = tested on: WM1716
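Note: cell number obtained by counting DAPI-stained nuclei in high-throughput microscope images with image analysis software, screen run in 1,536-well plates.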

Row | SMILES | cell count [1] [%] | cell count [2] [%] | cell count [3] [%] | cell count [4] [%] | cell count [5] [%] | cell count [6] [%] | cell count [7] [%] | cell count [8] [%] | cell count [9] [%] | cell count [10] [%]
1 | COC(=O)c1sccc1S(=O)(=O)Nc1ccc(Nc2ccccc2)cc1OC + O=C1NC(=O)/C(=C/c2ccc(-c3ccc(F)cc3O)o2)S1 [AS252424] (first compound 1 µM, partner dose 1 µM) | 99.5 | 120 | 79.6 | 86.4 | 87.1 | 116 | 104 | 97.2 | 91.9 | 102
2 | N#Cc1c(O)c2c(-c3ccc(-c4ccccc4O)cc3)csc2[nH]c1=O + COc1ccc(-c2ccc3c(N4CCOCC4)nc(N4C[C@@H](C)O[C@@H](C)C4)nc3n2)cc1CO [KU0063794] (first compound 2 µM, partner dose 0.02 µM) | 95.7 | 112 | 89.5 | 97.8 | 74.4 | 98.3 | 85.2 | 99.7 | 98 | 106
3 | COc1cc(N2CCC(N3CCN(C)CC3)CC2)ccc1Nc1ncc(Cl)c(Nc2ccccc2S(=O)(=O)C(C)C)n1 + O=c1cc(-c2cccc3c2Sc2ccccc2S3)oc(N2CCOCC2)c1 [KU55933] (first compound 0.08 µM, partner dose 1 µM) | 72.5 | 81.7 | 114 | 83.2 | 92.7 | 95.4 | 72.7 | 91.7 | 90.2 | 91.1
4 | N#Cc1c(O)c2c(-c3ccc(-c4ccccc4O)cc3)csc2[nH]c1=O + Oc1nc(-c2ccc(C(F)(F)F)cc2)nc2c1CSCC2 [XAV939] (first compound 2 µM, partner dose 2 µM) | 107 | 96.1 | 104 | 98 | 118 | 88.8 | 91.4 | 112 | 102 | 83.4
5 | Cc1cc([N+](=O)[O-])ccc1NS(=O)(=O)c1cc(Cl)ccc1Cl + Oc1nc(-c2ccc(C(F)(F)F)cc2)nc2c1CSCC2 [XAV939] (first compound 1 µM, partner dose 2 µM) | 86.7 | 87 | 83.2 | 96.5 | 120 | 84.1 | 81.9 | 89.7 | 77.3 | 71.4
6 | O=C1NC(=O)/C(=C/c2ccc(-c3ccc(F)cc3O)o2)S1 + O=c1cc(-c2cccc3c2Sc2ccccc2S3)oc(N2CCOCC2)c1 [KU55933] (first compound 1 µM, partner dose 1 µM) | 97.8 | 103 | 116 | 88.1 | 109 | 111 | 114 | 110 | 95.8 | 120
7 | Cc1cc([N+](=O)[O-])ccc1NS(=O)(=O)c1cc(Cl)ccc1Cl + COc1cc(N2CCC(N3CCN(C)CC3)CC2)ccc1Nc1ncc(Cl)c(Nc2ccccc2S(=O)(=O)C(C)C)n1 [NVP-TAE684] (first compound 1 µM, partner dose 0.08 µM) | 84.1 | 103 | 5.04 | 98 | 92.7 | 67.4 | 75.1 | 79.4 | 93.5 | 104
8 | CCN(CC)CCCCNc1ncc2cc(-c3cc(OC)cc(OC)c3)c(NC(=O)NC(C)(C)C)nc2n1 + O=c1cc(-c2cccc3c2Sc2ccccc2S3)oc(N2CCOCC2)c1 [KU55933] (first compound 0.1 µM, partner dose 1 µM) | 106 | 108 | 103 | 99.3 | 73.3 | 106 | 96.9 | 118 | 104 | 120
9 | O=S(=O)(c1ccccc1)N(CC(F)(F)F)c1ccc(C(O)(C(F)(F)F)C(F)(F)F)cc1 + COc1cc(N2CCC(N3CCN(C)CC3)CC2)ccc1Nc1ncc(Cl)c(Nc2ccccc2S(=O)(=O)C(C)C)n1 [NVP-TAE684] (first compound 1.4 µM, partner dose 0.08 µM) | 94 | 107 | 108 | 93.4 | 102 | 70.8 | 83 | 82.3 | 96.5 | 96.1
10 | CCN(CC)CCCCNc1ncc2cc(-c3cc(OC)cc(OC)c3)c(NC(=O)NC(C)(C)C)nc2n1 + Oc1nc(-c2ccc(C(F)(F)F)cc2)nc2c1CSCC2 [XAV939] (first compound 0.1 µM, partner dose 2 µM) | 117 | 97.9 | 108 | 92.6 | 111 | 96.2 | 85.1 | 87.4 | 95.2 | 77.5
11 | O=C1NC(=O)/C(=C/c2ccc(-c3ccc(F)cc3O)o2)S1 + c1cc(-c2cnn3cc(-c4ccc(OCCN5CCCCC5)cc4)cnc23)ccn1 [Dorsomorphin] (first compound 1 µM, partner dose 0.4 µM) | 97.6 | 109 | 474 | 112 | 101 | 93.6 | 90.7 | 92.4 | 108 | 103
12 | COc1ccc2c(c1)CCC1C2CCC2(C)C(NCCCCCCN3C(=O)C=CC3=O)CCC12 (stereo not given) + Oc1nc(-c2ccc(C(F)(F)F)cc2)nc2c1CSCC2 [XAV939] (first compound 0.4 µM, partner dose 2 µM) | 104 | 60.7 | 86.1 | 84.5 | 126 | 88.1 | 86.5 | 92.1 | 94.7 | 54
13 | COc1ccc2c(c1)CCC1C2CCC2(C)C(NCCCCCCN3C(=O)C=CC3=O)CCC12 (stereo not given) + CCN(CC)CCCCNc1ncc2cc(-c3cc(OC)cc(OC)c3)c(NC(=O)NC(C)(C)C)nc2n1 [PD173074] (first compound 0.4 µM, partner dose 0.1 µM) | 95.1 | 71.5 | 97.7 | 91.5 | 98.5 | 96 | 98.4 | 108 | 96.7 | 82.5
14 | COc1ccc(-c2ccc3c(N4CCOCC4)nc(N4C[C@@H](C)O[C@@H](C)C4)nc3n2)cc1CO + CC(C)CCN1c2nc(Nc3cc(F)c(O)c(F)c3)ncc2N(C)C(=O)C1C [BID1870] (first compound 0.02 µM, partner dose 0.2 µM) | 85 | 124 | 88.6 | 94.9 | 90.2 | 86 | 91.9 | 67.8 | 89.9 | 83.9
15 | COC(=O)c1sccc1S(=O)(=O)Nc1ccc(Nc2ccccc2)cc1OC + COc1ccc(COc2ccc(Cc3cnc(N)nc3N)cc2OC)cc1 [GW2580] (first compound 1 µM, partner dose 1 µM) | 97.4 | 99.3 | 93.6 | 89 | 111 | 83.3 | 100 | 91.9 | 107 | 87.8
16 | COc1ccc(-c2ccc3c(N4CCOCC4)nc(N4C[C@@H](C)O[C@@H](C)C4)nc3n2)cc1CO + CCCCCCCCCCCC1=C(O)C(=O)C=C(O)C1=O [Embelin] (first compound 0.02 µM, partner dose 1.2 µM) | 96 | 82.7 | 91.4 | 85.1 | 98 | 94.9 | 93.5 | 88.9 | 80.8 | 103
17 | Oc1nc(-c2ccc(C(F)(F)F)cc2)nc2c1CSCC2 + CCCCCCCCCCCC1=C(O)C(=O)C=C(O)C1=O [Embelin] (first compound 2 µM, partner dose 1.2 µM) | 112 | 85.7 | 70.5 | 104 | 128 | 92.7 | 85.4 | 105 | 102 | 67
18 | CCN(CC)CCCCNc1ncc2cc(-c3cc(OC)cc(OC)c3)c(NC(=O)NC(C)(C)C)nc2n1 + CC(C)CCN1c2nc(Nc3cc(F)c(O)c(F)c3)ncc2N(C)C(=O)C1C [BID1870] (first compound 0.1 µM, partner dose 0.2 µM) | 98.6 | 108 | 129 | 92.4 | 99.7 | 102 | 68.5 | 102 | 96.6 | 87.3
19 | O=C(O)C(=O)Nc1sc2c(c1C(=O)O)CCNC2 + CCCCCCCCCCCC1=C(O)C(=O)C=C(O)C1=O [Embelin] (first compound 1.66667 µM, partner dose 1.2 µM) | 105 | 115 | 93.3 | 99.9 | 125 | 114 | 91.4 | 92.9 | 88.1 | 98.4
20 | COc1ccc2c(c1)CCC1C2CCC2(C)C(NCCCCCCN3C(=O)C=CC3=O)CCC12 (stereo not given) + O=c1cc(-c2cccc3c2Sc2ccccc2S3)oc(N2CCOCC2)c1 [KU55933] (first compound 0.4 µM, partner dose 1 µM) | 90.9 | 87.7 | 137 | 79.7 | 123 | 97.7 | 122 | 86.7 | 104 | 92.6
21 | O=S(=O)(c1ccccc1)N(CC(F)(F)F)c1ccc(C(O)(C(F)(F)F)C(F)(F)F)cc1 + Cn1cc(/C=C2\C(=O)Nc3cccnc32)c2ccccc21 [GW441756] (first compound 1.4 µM, partner dose 0.4 µM) | 103 | 114 | 89 | 92.1 | 107 | 85.2 | 120 | 100 | 95.9 | 101
22 | O=C(O)C(=O)Nc1sc2c(c1C(=O)O)CCNC2 + CC(C)CCN1c2nc(Nc3cc(F)c(O)c(F)c3)ncc2N(C)C(=O)C1C [BID1870] (first compound 1.66667 µM, partner dose 0.2 µM) | 92.8 | 100 | 92.6 | 87.1 | 83.4 | 89 | 83.5 | 81.3 | 98.3 | 103
23 | COc1ccc(COc2ccc(Cc3cnc(N)nc3N)cc2OC)cc1 + c1cc(-c2cnn3cc(-c4ccc(OCCN5CCCCC5)cc4)cnc23)ccn1 [Dorsomorphin] (first compound 1 µM, partner dose 0.4 µM) | 112 | 90.8 | 112 | 107 | 92.3 | 84.4 | 86.4 | 107 | 111 | 95.6
24 | COc1cc2ncnc(Nc3ccc(Oc4ccccc4)cc3)c2cc1OC + O=C1NC(=O)/C(=C/c2ccc(-c3ccc(F)cc3O)o2)S1 [AS252424] (first compound 2 µM, partner dose 1 µM) | 108 | 139 | 102 | 93.3 | 82.7 | 102 | 92.5 | 109 | 102 | 105
25 | COc1ccc2c(c1)CCC1C2CCC2(C)C(NCCCCCCN3C(=O)C=CC3=O)CCC12 (stereo not given) + CCCCCCCCCCCC1=C(O)C(=O)C=C(O)C1=O [Embelin] (first compound 0.4 µM, partner dose 1.2 µM) | 99.2 | 90.7 | 108 | 100 | 104 | 101 | 109 | 99.7 | 87.2 | 82.5
26 | O=S(=O)(c1ccccc1)N(CC(F)(F)F)c1ccc(C(O)(C(F)(F)F)C(F)(F)F)cc1 + Oc1nc(-c2ccc(C(F)(F)F)cc2)nc2c1CSCC2 [XAV939] (first compound 1.4 µM, partner dose 2 µM) | 93.9 | 113 | 111 | 96.7 | 102 | 65.9 | 91.5 | 84.9 | 91.4 | 64.3
27 | COc1cc2ncnc(Nc3ccc(Oc4ccccc4)cc3)c2cc1OC + O=C(O)C(=O)Nc1sc2c(c1C(=O)O)CCNC2 [TCS401] (first compound 2 µM, partner dose 1.66667 µM) | 112 | 133 | 118 | 92.5 | 109 | 116 | 116 | 95 | 120 | 130
28 | CCCCCCCCCCCC1=C(O)C(=O)C=C(O)C1=O [Embelin] + O=c1cc(-c2cccc3c2Sc2ccccc2S3)oc(N2CCOCC2)c1 [KU55933] (first compound 1.2 µM, partner dose 1 µM) | 92.3 | 85.1 | 109 | 91.9 | 97.8 | 107 | 87.5 | 107 | 101 | 107
29 | CCN(CC)CCCCNc1ncc2cc(-c3cc(OC)cc(OC)c3)c(NC(=O)NC(C)(C)C)nc2n1 + COc1ccc(COc2ccc(Cc3cnc(N)nc3N)cc2OC)cc1 [GW2580] (first compound 0.1 µM, partner dose 1 µM) | 108 | 105 | 123 | 91.9 | 121 | 107 | 113 | 96.4 | 98.7 | 103
